These results are taken from a collection of fitness landscapes (doi:10.1016/j.celrep.2020.107928).

B1: Caulobacter ParB omega fusion; a variant is named by its letters at X, in order, B8GW30 (parent)
chain: MESVVVGEPGMSEGRRGLGRGLSALLGEVDAAPAQAPGEQLGGSREAPIEILQRNPDQPRRTFREEDLEDLSNSIREKGVLQPILVRPSPDTAGEYQIVAGERAWRAAQRAGLKTVPIMVRELDDLAVLEIGIIENVQRADLNVLEEALSYKVLMEKFERTQENIAQTIGKSXSHVANXMRLLXLPDEVQSYLVSGELTAXHARAIAAAADPVALAKQIIEGGLSVRETEALARKAPNLSAGKSKGGRPPRVKDTDTQALESDLSSVLGLDVSIDHRGSTGTLTITYATLEQLDDLCNRLTRGI

In all, about 81,000 sequences were measured (“one-hybrid fitness for binding parS DNA”: median about -0.17, highest 2% from about 0.51 on). Some of the results follow. Bounds are passed on as bounds.

The variants in the assay derive from B1. Description: one-hybrid fitness for binding parS DNA (scaled: cognate 1, non-cognate 0); higher = stronger binding. Conditions: with parS DNA site. The procedure, abridged: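 On M9-minus-histidine containing 0.1 mM IPTG and 5 mM 3-AT, E. coli USO cells with a HIS3 reporter, site 19 bp from the promoter, grew 48 hours at 37°C to select Caulobacter ParB libraries randomised at four specificity codons. Plasmids from before and after were Illumina-sequenced, with three replicate libraries pooled and variants under 10 reads left out. Fitness is the log change in variant-to-wild-type read ratio, rescaled against cognate and non-cognate.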
For the variant YYPS, the “one-hybrid fitness for binding parS DNA” value is not above 0.2. The same measure for HTIY: not above 0.2; for LPYR: not above 0.2; for RVPK: not above 0.2. Regarding LENR, the “one-hybrid fitness for binding parS DNA” value was not above 0.2.

Consider WSHT, for which the “one-hybrid fitness for binding parS DNA” value was not above 0.2. With QFGS the figure was not above 0.2; with FWEG, not above 0.2. With HIAS the figure was not above 0.2; with LLQY, not above 0.2; with HDHR, not above 0.2. The same measure for LCRI: not above 0.2; for VPPH: not above 0.2. In the case of RVKV, the “one-hybrid fitness for binding parS DNA” value is not above 0.2. With GSEC the figure was not above 0.2. With AQRG the figure was not above 0.2.

As for YVPA, the “one-hybrid fitness for binding parS DNA” value was not above 0.2. The same measure for SNNW: not above 0.2; for SCYN: not above 0.2; for KRIV: not above 0.2.

Consider RFVE, for which the “one-hybrid fitness for binding parS DNA” value is not above 0.2.

Consider ENWV, for which the “one-hybrid fitness for binding parS DNA” value is not above 0.2. With NWTC, the “one-hybrid fitness for binding parS DNA” value is not above 0.2. Turning to FYHS, the “one-hybrid fitness for binding parS DNA” value was not above 0.2. With ARAG the figure was not above 0.2; with DMEG, not above 0.2. With PDRH the figure was not above 0.2; with QVIF, not above 0.2; with LEVL, not above 0.2. Regarding PSAY, the “one-hybrid fitness for binding parS DNA” value was not above 0.2. With TCTF the figure was not above 0.2; with TNDS, not above 0.2.

Turning to RQYH, the “one-hybrid fitness for binding parS DNA” value is not above 0.2. With PVGP the figure was not above 0.2. With TTML, the “one-hybrid fitness for binding parS DNA” value is not above 0.2. As for LWPT, the “one-hybrid fitness for binding parS DNA” value was not above 0.2. The same measure for HFSI: not above 0.2. With VQRG the figure was not above 0.2; with RECS, not above 0.2. Regarding RVAV, the “one-hybrid fitness for binding parS DNA” value was not above 0.2. The same measure for TNCS: not above 0.2; for RTNR: not above 0.2; for AWPR: not above 0.2. As to SKNN, the “one-hybrid fitness for binding parS DNA” value was not above 0.2. In the case of TVIY, the “one-hybrid fitness for binding parS DNA” value was not above 0.2.

With CVVT, the “one-hybrid fitness for binding parS DNA” value was not above 0.2. The same measure for NSYL: not above 0.2; for RLKK: not above 0.2; for SLSY: not above 0.2. On to AWLT, for which the “one-hybrid fitness for binding parS DNA” value was not above 0.2. With NCHS the figure was not above 0.2. With DLPT the figure was not above 0.2. On to YSYP, for which the “one-hybrid fitness for binding parS DNA” value is not above 0.2. As for FYTN, the “one-hybrid fitness for binding parS DNA” value was not above 0.2.

As to GTSF, the “one-hybrid fitness for binding parS DNA” value was not above 0.2. With GIAC the figure was not above 0.2.

As to STLC, the “one-hybrid fitness for binding parS DNA” value was not above 0.2. The same measure for WDTC: not above 0.2. Turning to TAFA, the “one-hybrid fitness for binding parS DNA” value was not above 0.2.

For the variant CECS, the “one-hybrid fitness for binding parS DNA” value is not above 0.2. The same measure for CLRR: not above 0.2; for QFSA: not above 0.2; for TWGS: not above 0.2.

Regarding DSES, the “one-hybrid fitness for binding parS DNA” value is not above 0.2. The same measure for EAPN: not above 0.2; for ECQS: not above 0.2; for RGSD: not above 0.2.

For the variant YAGS, the “one-hybrid fitness for binding parS DNA” value is not above 0.2.

In the case of ATFF, the “one-hybrid fitness for binding parS DNA” value was not above 0.2. In the case of LARK, the “one-hybrid fitness for binding parS DNA” value was not above 0.2. In the case of QRDH, the “one-hybrid fitness for binding parS DNA” value was not above 0.2. Regarding HNCC, the “one-hybrid fitness for binding parS DNA” value was not above 0.2. The same measure for SRSA: not above 0.2; for GDKC: not above 0.2; for VPTY: not above 0.2. Consider RFLR, for which the “one-hybrid fitness for binding parS DNA” value was not above 0.2. The same measure for TSCY: not above 0.2; for QTLI: not above 0.2. For the variant SCLC, the “one-hybrid fitness for binding parS DNA” value was not above 0.2.

For the variant KTYK, the “one-hybrid fitness for binding parS DNA” value is not above 0.2. With QQDN the figure was not above 0.2; with SGTR, not above 0.2. The same measure for SRPR: not above 0.2.

As for VFPT, the “one-hybrid fitness for binding parS DNA” value was not above 0.2.

As for RNRW, the “one-hybrid fitness for binding parS DNA” value was 0.24.

In the case of ESAP, the “one-hybrid fitness for binding parS DNA” value was not above 0.2. With PSDA the figure was not above 0.2; with VVTY, not above 0.2. With NALR the figure was not above 0.2; with INYC, not above 0.2; with DTWV, not above 0.2.

For the variant TNPF, the “one-hybrid fitness for binding parS DNA” value is not above 0.2. For FGLC, the “one-hybrid fitness for binding parS DNA” value is not above 0.2. The same measure for TVGV: not above 0.2; for TLGW: not above 0.2; for DAMY: not above 0.2.

As for TTVT, the “one-hybrid fitness for binding parS DNA” value is not above 0.2.

Take VDLC: the “one-hybrid fitness for binding parS DNA” value is not above 0.2. The same measure for DIRG: not above 0.2. The same measure for RGKP: not above 0.2; for WNHR: not above 0.2.

Turning to SYAR, the “one-hybrid fitness for binding parS DNA” value was not above 0.2.

As for WQWS, the “one-hybrid fitness for binding parS DNA” value is not above 0.2. With QCTE the figure was not above 0.2; with FDRC, not above 0.2. With SRVS the figure was not above 0.2; with GSRC, not above 0.2; with RLQC, 0.998. The same measure for TKGP: not above 0.2. In the case of SNSN, the “one-hybrid fitness for binding parS DNA” value was not above 0.2.

For the variant YFGG, the “one-hybrid fitness for binding parS DNA” value was not above 0.2. In the case of ATER, the “one-hybrid fitness for binding parS DNA” value is not above 0.2. As to LGNT, the “one-hybrid fitness for binding parS DNA” value is not above 0.2.

For AVCS, the “one-hybrid fitness for binding parS DNA” value was not above 0.2. For the variant NQPQ, the “one-hybrid fitness for binding parS DNA” value was not above 0.2. With KNTS the figure was not above 0.2; with TITW, not above 0.2.

RWFL: the “one-hybrid fitness for binding parS DNA” value is not above 0.2. With HSDT, the “one-hybrid fitness for binding parS DNA” value was not above 0.2.

For the variant QWDK, the “one-hybrid fitness for binding parS DNA” value was not above 0.2. With HGTV the figure was not above 0.2; with HEKC, not above 0.2.

Consider HQGC, for which the “one-hybrid fitness for binding parS DNA” value is not above 0.2. Regarding RVTF, the “one-hybrid fitness for binding parS DNA” value was 0.202. The same measure for THPE: not above 0.2; for PFFR: not above 0.2. The same measure for TGIA: not above 0.2. The same measure for FLPY: not above 0.2; for HFRW: not above 0.2.

For YGTG, the “one-hybrid fitness for binding parS DNA” value is not above 0.2. With VSKA the figure was not above 0.2. With PSQC the figure was not above 0.2; with QMFE, not above 0.2. As to THRL, the “one-hybrid fitness for binding parS DNA” value is not above 0.2. The same measure for TKEA: not above 0.2; for PYSS: not above 0.2.

Consider LSDS, for which the “one-hybrid fitness for binding parS DNA” value was not above 0.2. With NHCL the figure was not above 0.2.

Turning to QSLF, the “one-hybrid fitness for binding parS DNA” value was not above 0.2. The same measure for AAII: not above 0.2; for IPST: not above 0.2; for DAEG: not above 0.2. With NYPV the figure was not above 0.2; with LDLR, not above 0.2; with VQSH, not above 0.2. The same measure for QAPT: not above 0.2; for PPRL: not above 0.2.

Regarding YASC, the “one-hybrid fitness for binding parS DNA” value is not above 0.2. Consider CLPV, for which the “one-hybrid fitness for binding parS DNA” value was not above 0.2. The same measure for RTNG: 0.968; for DRIA: not above 0.2. The same measure for DWTG: not above 0.2. The same measure for SCMT: not above 0.2.
